PubChem BioAssay AID1645887 (National Center for Advancing Translational Sciences (NCATS), 2021)
Where “and” joins values, the source holds several entries; their conditions need not be identical. Equal values may be shown once. Among all 16,000 compounds or so, about 40 (0.2%) were called active. About 1% were inconclusive and are not listed. Calls come from the whole dose curve; as a rule, active = well fitted activation curve with a large enough effect; inconclusive = small, poorly fitted or top-dose-only effect, or another doubt; inactive = no such curve, though single readings can be large or run the other way. This is one part of the list.

target: Rap guanine nucleotide exchange factor 4 (Homo sapiens) (UniProt Q8WZA2); experiment: Validation qHTS for agonist of cAMP-regulated guanine nucleotide exchange factor 4 (EPAC2); conditions: EPAC2 Rap1B BODIPY-GDP exchange, fluorescence; activation: hits give high values;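 note: exchange makes BODIPY-GDP fluorescence drop when released from Rap1B; series mostly up to about 150 µM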
Chain of UniProt Q8WZA2 (Q8WZA2 whole entry, looked up): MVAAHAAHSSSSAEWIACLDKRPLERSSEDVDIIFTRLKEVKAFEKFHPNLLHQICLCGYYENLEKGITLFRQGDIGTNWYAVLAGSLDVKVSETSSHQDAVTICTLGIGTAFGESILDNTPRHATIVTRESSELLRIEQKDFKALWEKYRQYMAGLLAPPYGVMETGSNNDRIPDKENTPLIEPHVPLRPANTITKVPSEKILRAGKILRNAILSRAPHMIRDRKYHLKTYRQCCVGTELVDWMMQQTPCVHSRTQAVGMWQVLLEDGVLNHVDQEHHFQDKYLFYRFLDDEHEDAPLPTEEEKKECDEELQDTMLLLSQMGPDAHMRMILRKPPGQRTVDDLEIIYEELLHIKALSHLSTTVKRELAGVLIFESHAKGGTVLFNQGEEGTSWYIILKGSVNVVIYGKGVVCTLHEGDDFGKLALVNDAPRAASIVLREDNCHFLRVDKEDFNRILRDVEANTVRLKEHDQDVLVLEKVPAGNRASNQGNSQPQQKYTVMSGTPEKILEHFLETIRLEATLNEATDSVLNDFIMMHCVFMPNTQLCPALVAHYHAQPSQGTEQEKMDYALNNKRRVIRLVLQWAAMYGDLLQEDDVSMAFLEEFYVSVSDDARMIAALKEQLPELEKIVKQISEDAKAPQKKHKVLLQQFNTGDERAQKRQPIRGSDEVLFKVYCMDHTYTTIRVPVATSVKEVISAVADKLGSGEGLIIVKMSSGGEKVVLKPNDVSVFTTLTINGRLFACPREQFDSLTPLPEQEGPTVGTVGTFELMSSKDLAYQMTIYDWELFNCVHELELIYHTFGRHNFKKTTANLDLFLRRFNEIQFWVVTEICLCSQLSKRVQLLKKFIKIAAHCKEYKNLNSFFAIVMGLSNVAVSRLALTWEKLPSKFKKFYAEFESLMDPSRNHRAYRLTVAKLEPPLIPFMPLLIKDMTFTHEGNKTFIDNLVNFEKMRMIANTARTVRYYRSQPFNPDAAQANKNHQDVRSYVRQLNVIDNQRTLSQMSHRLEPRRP
Summary of the method: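 Signal normalized against 6.5 mM cAMP as agonist control. Mix of EPAC2 (100 nM), RAP1B-BODIPY-GDP (250 nM) and GDP (50 uM) was read kinetically at 480/540 nm, every 5 min over 30 min, after 5 min room-temperature incubation with compound.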
% is set by controls: 0 for no effect and ±100 for the full control effect.

activation, inactive:
CN1CCC(N(Cc2cccs2)c2ccccc2)CC1 -2.84%
COC1=C(OC)C(=O)C(C/C=C(\C)CC/C=C(\C)CC/C=C(\C)CC/C=C(\C)CC/C=C(\C)CC/C=C(\C)CC/C=C(\C)CC/C=C(\C)CC/C=C(\C)CCC=C(C)C)=C(C)C1=O -0.172%
COC(=O)c1cc(CNC(=O)c2ccc(N(C)C)cc2)cc(NC(=O)c2ccccc2Cl)c1 -9.56%
O=C(CSc1ccncc1)NCC1Cc2cccc(-c3cncnc3)c2O1 (configuration not stated) 8.54%
COc1ccc(O)c(CN2CCC3(CC2)c2ccccc2[C@@H](NC(=O)c2cccc(F)c2)[C@@H]3OC)c1 6.2%
Cn1c(=O)c2[nH]c(Br)nc2n(C)c1=O -27.1%
NC(=O)[C@@H]1CCCN1C(=O)[C@H](Cc1cnc[nH]1)NC(=O)[C@@H]1CCC(=O)N1 -38.4%
CCCCC[C@H](O)/C=C/[C@@H]1[C@H]2C/C(=C/CCCC(=O)O)O[C@H]2C[C@H]1O -14.7%
CC(=O)OC1CC2C(C)(C)C(O)C=C[C@@]2(C)C2CC[C@@]3(C)C(c4ccoc4)OC(=O)C4OC43[C@]12C (some centres not stated) -7.82%
O=C(c1ccncc1)N1CCC[C@@]2(CCN(C(c3ccccc3)c3ccccc3)C2)C1 -1.1%
O=C(C[n+]1ccccc1Cl)c1ccc(F)cc1 -11%
COc1ccc(-n2ccc(-c3sc(NCc4cc(OC)c5c(c4)OCO5)nc3C)n2)cc1 -13.3%
Cc1ccccc1C1(CC(=O)N2CC3CC4CC(C3)CC2C4)CC(=O)N(Cc2cccnc2)C1=O (configuration not stated) 5.19%
COc1ccccc1CNc1ccnc(-c2ccc(N(C)C)cc2)n1 -2.97%
COc1ccc(CC(=O)c2ccc(O)cc2O)cc1 -11.3%
COc1cccc(-c2nc(NC3CC3)c3ccccc3n2)c1 3.34%
O=C(NCC1Cc2cc(F)cc(-c3cccnc3)c2O1)c1cnn(-c2ccccc2)c1 (configuration not stated) -18.5%
CCC(O)CNC(=O)c1cnn(-c2ncc3c(n2)-c2ccc(OC)cc2CC3)c1C1CC1 (configuration not stated) 3.71%
COCc1c(C(=O)N2CCN(C(C)C)CC2)cnn1-c1nccc(-c2cc(C)sc2C)n1 2.49%
C=C1CCC2C(C)(CO)C(O)CCC2(C)C1C/C=C1\C(=O)OCC1O (configuration not stated) 1.28%
COc1cc(=O)n2c(c1C(=O)NC(C)c1ccco1)CCN(C(=O)c1cccc(C)c1C)CC2 (configuration not stated) -10.2%
CCOC(=O)c1ccc(O)cc1 1.32%
COc1cccc(CNC(=O)c2c(OC)cc(=O)n3c2CCN(C(=O)c2ccc(Cl)cc2)CC3)c1 -0.819%
COc1cccc(Cn2c(=O)c(-c3cn(C)c4ccccc34)nc3cnc(N4CCNCC4)nc32)c1 16.5%
CC(=O)O[C@H]1Cc2ccccc2N(C(N)=O)c2ccccc21 -16.5%
Nn1cc(Br)c(=O)[nH]c1=O 12%
O=C(O)C(=O)Nc1cccc(C2=NN=N[N]2)c1 -9.17%
COc1cccc(Cn2c(=O)cnc3cnc(Oc4ccccc4)nc32)c1 3.16%
CCNc1ncc2nc(-c3cn(C)c4ccccc34)c(=O)n(Cc3cccs3)c2n1 -1.05%
O=C(c1cnn(-c2nccc(-c3ccccc3C(F)(F)F)n2)c1C1CC1)N1CCN(CCO)CC1 -14.1%
COc1ccc(CCNC(=O)c2cnn(-c3nccc(-c4ccco4)n3)c2C)cc1 -3.09%
CCN1CCN(c2cc(-c3ccc(F)cc3)c3c(n2)CCCCCC3)CC1 6.49%
CCNc1ncc2nc(CCc3ccccc3)c(=O)n(CCOC)c2n1 -7.67%
Cc1ncc2c(c1CNC(=O)c1ccc3c(c1)OCO3)CCN(C(=O)c1noc3c1CCCC3)C2 -0.55%
[N-]=[N+]=Nc1ccc(C(=O)CSC[C@H](NC(=O)CC[C@H](N)C(=O)O)C(=O)NCC(=O)O)cc1 -68.8%
CN(C)Cc1ccccc1-c1cc(NC2CC2)ncn1 1.42%
O=S(=O)(c1ccccc1)N1CCC[C@@]2(CCN(c3cccc(-c4ccccc4)c3)C2)C1 -2.01%
O=C(c1csnn1)N1CCC[C@@]2(CCN(C(c3ccccc3)c3ccccc3)C2)C1 -4.01%
O=C(c1cccnc1)C1CCCN(Cc2ccc3c(c2)CN(C(=O)c2cn4ccccc4n2)CCO3)C1 (configuration not stated) -31.2%
CN1C[C@H](C(=O)N[C@]2(C)O[C@@]3(O)[C@H]4CCCN4C(=O)[C@H](Cc4ccccc4)N3C2=O)C[C@H]2c3cccc4[nH]cc(c34)C[C@@H]21 1.66%
O=C(/C=C/c1ccccc1)c1ccc(O)cc1O -25.8%
Cc1nc2cnc(Oc3cccc(Cl)c3)nc2n(C2CC2)c1=O -2.27%
CN1CC(=O)N2C(Cc3c([nH]c4ccccc34)[C@H]2c2ccc3c(c2)OCO3)C1=O (some centres not stated) -21%
COC(=O)C[C@H]1c2cc(F)ccc2S(=O)(=O)N1C1CC1 -27.2%
O=C1c2ccccc2C(Cc2ccncc2)(Cc2ccncc2)c2ccccc21 -2.78%
CN1CCCC(CN(C)C(=O)c2cnn(-c3nccc(-c4ccccc4C(F)(F)F)n3)c2C2CC2)C1 (configuration not stated) 0.0463%
O=C1CCc2c(ccc3ccccc23)O1 -34.9% and 2.88%
COc1ccccc1C1CN(CCNC(=O)C2=CCCC2)Cc2ccccc2O1 (configuration not stated) -18.2%
Cn1c(=O)c2c(ncn2C)n(C)c1=O -2.53% [middle of 4 runs]
Cc1cnc(C)c(-c2ccc(F)c3c2OC(CNC(=O)Cc2c(C)[nH]c4ccccc24)C3)n1 (configuration not stated) -19.4%
CN(C)C(=O)c1ccc(-c2cncnc2NCc2ccccc2)cc1 -9.06%
COc1ccccc1N1CCN(c2nc(CNC(=O)C3CC34CCCC4)nc3ccccc23)CC1 (configuration not stated) -20.5%
